# Measured values as given in PubChem BioAssay AID1345082 (National Center for Advancing Translational Sciences (NCATS), 2018).
# About 4,000 (4.3%) of roughly 94,000 compounds were called active. Inconclusive results, whose numbers are uncertain, are shown with a selection of clear calls. Calls come from the whole dose curve; as a rule, active = well fitted inhibition curve with a large enough effect; inconclusive = small, poorly fitted or top-dose-only effect; inactive = no such curve, though single readings can be large or run the other way. Potencies beside an inconclusive call are fits to weak or partial responses and may not hold up.
# Assay: Cytotoxic Profiling in NIH 3T3 Cell Line of Diverse Libraries Using Quantitative High-Throughput Screening; note: nearly all actives have a fitted effect of over 55% in size
# Conditions: NIH 3T3 viability, CellTiter-Glo ATP luminescence, 48-72 h; series mostly up to 96.7 µM
# Method in brief: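 Luminescent ATP readout (CellTiter-Glo, 10 min RT) after 48 or 72 hr compound exposure of NIH 3T3 cells seeded at 400 cells/well in 1536-well format; quantitative HTS.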
# Potency is the fitted concentration of half-maximal effect; tags give direction and shape of the fitted curve.
row,Structure (SMILES),Potency
1,Cc1nccn1CCC(NC(=O)c1cn(CCN)nn1)c1ccccc1 (stereo not given),inactive
2,Cn1cc(-c2cnc3n[nH]c(-c4ccccc4)c3n2)cn1,"inconclusive: 11.2 µM [inhibitor, full curve, poor fit]"
3,O=C(NCc1ccc(F)cc1)C1CCc2nnc(C3CCN([S+](=O)([O-])c4ccccc4Cl)CC3)n21 (stereo not given),inactive
4,COc1cccc(C(=O)NCCn2ccn3nc(-c4ccc(F)cc4)cc3c2=O)c1OC,"inconclusive: 2.82 µM [inhibitor, full curve, poor fit]"
5,Cc1nn(C)c(C)c1S(=O)(=O)N1CCCC(Cn2c(C3CC3)nc3cccnc32)C1 (stereo not given),"inconclusive: 70.8 µM [inhibitor, single point]"
6,CC(C)CCN(C)Cc1ccc(-c2ccccc2)cc1,"inconclusive: 79.4 µM [inhibitor, partial curve]"
7,Cc1ccc(C(=O)N2CCCC(N3C(=O)c4c(c(C)nn4-c4ccccc4)C3C(C)C)C2)cc1 (stereo not given),"inconclusive: 50.1 µM [inhibitor, partial curve, poor fit]"
8,Cc1ccccc1C(=O)N1CCC(N2CCCCCC2=O)CC1,inactive
9,O=C(c1n[nH]c2ccccc12)N1CCCC1c1nc(CCOCC2CCCC2)no1 (stereo not given),"inconclusive: 44.7 µM [inhibitor, partial curve, poor fit]"
10,COCc1nnc2n1CCC(NC(=O)COc1ccc(F)cc1)CC2 (stereo not given),inactive
11,CCOC(=O)[C@H]1[C@@H](O)C(=O)N(C(C)C)C12CCN(C(=O)c1cc3ccccc3s1)CC2,"inconclusive: 56.2 µM [inhibitor, partial curve, poor fit]"
12,COc1ncccc1-c1cc2c(nc1-c1ccccc1)nc(C(=O)NCCN(C)C)n2C,"inconclusive: 112 µM [inhibitor, partial curve, poor fit]"
13,CC(=O)N1CCC(Cn2cc(Cn3c(C)nc4ccccc43)nn2)CC1,"inconclusive: 10 µM [inhibitor, partial curve, poor fit]"
14,Cc1cccc(NC(=O)C2(C)CCCCC(=O)N2)c1 (stereo not given),inactive
15,O=C(NC1CCN(c2ccnc3ccnn23)C1)c1ccc(Cl)cc1 (stereo not given),"inconclusive: 39.8 µM [inhibitor, partial curve, poor fit]"
16,CCN(CC)Cc1nc(C2(O)CCN(Cc3ccccc3C(F)(F)F)CC2)cs1,"inconclusive: 79.4 µM [inhibitor, partial curve]"
17,O=C1[C@@H]2C[C@@H](O)CN2C2(CN(Cc3cccs3)C2)C(=O)N1Cc1cccc(Cl)c1,"inconclusive: 100 µM [inhibitor, partial curve, poor fit]"
18,O=c1c2c(CO)c(-c3ccc(F)cc3)nn2ccn1Cc1ccc(Br)cc1,inactive
19,CCCNC(=O)C1COC2(CCC(C)CC2)N1C(=O)c1ccccc1Cl (stereo not given),inactive
20,CSc1ccc(-c2ccc3c(c2)C(=O)N2CC[C@H](NC(=O)c4cccs4)C[C@H]2C(=O)N3)cc1,inactive
21,CC(=O)c1ccc(NC(=O)N[C@H]2CCN3C(=O)[C@@H](Cc4ccccc4)NC(=O)[C@H]23)cc1,inactive
22,CCOC(=O)C(Cc1cccc(N2CCN(C(=O)OC(C)(C)C)CC2)c1)OC (stereo not given),"inconclusive: 44.7 µM [inhibitor, partial curve, poor fit]"

row,Structure (SMILES),Potency
1,O=C(NCCCn1ccnc1)c1ccc(-c2ncc3cnc(-c4cccc(F)c4)cn23)cc1,"inconclusive: 44.7 µM [inhibitor, partial curve, poor fit]"
2,COc1ccc(CNC(=O)N2CC(Oc3cccc(-c4nc(C)no4)c3)C2)cc1,"inconclusive: 39.8 µM [inhibitor, partial curve, poor fit]"
3,Cc1nn(-c2ccccc2)c2c1C(C(C)C)N(C1CCN(C(=O)c3cccc(Cl)c3)C1)C2=O (stereo not given),"inconclusive: 44.7 µM [inhibitor, partial curve, poor fit]"
4,CN1CCN([C@H]2CCN(C(=O)Cc3cccc(O)c3)C[C@H]2CCCO)CC1,inactive
5,c1cncc(Nc2cc3c(cn2)CN(Cc2cccs2)CCN3)c1,"inconclusive: 39.8 µM [inhibitor, partial curve, poor fit]"
6,O=c1c2c(n(Cc3cccnc3)n1-c1ccccc1)CN(CC1CCOC1)CC2 (stereo not given),"inconclusive: 79.4 µM [inhibitor, partial curve]"
7,O=C1NC2(CN([S+](=O)([O-])c3cccc(C(F)(F)F)c3)C2)Oc2ccccc21,"inconclusive: 50.1 µM [inhibitor, partial curve, poor fit]"
8,N#Cc1ccc(C(=O)N2CCCOCCNC(=O)CC2)cc1,"inconclusive: 44.7 µM [inhibitor, partial curve, poor fit]"
9,C=CCN1CC(C(=O)N2CCC3(CCC(=O)N(C4CC4)C3)CC2)CC1=O (stereo not given),inactive
10,O=C(NC1CCN(Cc2cccc(-c3ccc(F)cc3F)c2)CC1)C1CCCC1,inactive
11,CC(=O)Nc1cccc(-c2ccnc(-c3nnc(C)n3Cc3ccccc3)c2)c1,"inconclusive: 79.4 µM [inhibitor, partial curve]"
12,CCCN1C(=O)CCc2cc(NC(=O)c3ccc4c(c3)OCO4)ccc21,"inconclusive: 50.1 µM [inhibitor, partial curve, poor fit]"
13,CNC(=O)[C@H]1C[C@]2(CCCCN(CCO)C2=O)N(C(=O)NCc2ccccc2)[C@H]1c1ccccc1,"inconclusive: 56.2 µM [inhibitor, partial curve, poor fit]"
14,O=C(N[C@H]1CCN2C(=O)c3cc(-c4ccc(F)cc4F)ccc3NC(=O)[C@H]12)c1cccs1,"inconclusive: 79.4 µM [inhibitor, partial curve, poor fit]"
15,COc1ccc(-c2ccc3nc(-c4ccccc4Cl)oc3c2)c(OC)c1OC,"inconclusive: 44.7 µM [inhibitor, partial curve, poor fit]"
16,N#Cc1ccc(CNC(=O)[C@@H]2Cc3nc[nH]c3CN2CC2CCCCC2)cc1,inactive
17,CC(C)NC(=O)NC1CCN(C(=O)c2ccc(-c3cccs3)cc2)CC1,"inconclusive: 50.1 µM [inhibitor, single point]"
18,CCOc1cc(=O)n2c(c1C(=O)Nc1cc(Cl)ccc1F)CCCC2,"inconclusive: 39.8 µM [inhibitor, partial curve]"
19,COc1ccc(OCC2(C)COc3ccc(C(=O)Nc4ccc(OC)nc4)cc3N2)cc1 (stereo not given),"inconclusive: 50.1 µM [inhibitor, partial curve, poor fit]"
20,c1cc2c(cc1CN1CCCCCC1)CNCCO2,"inconclusive: 79.4 µM [inhibitor, partial curve, poor fit]"
21,O=C(NCc1cccnc1)c1nc(-c2ccc(Cl)nc2)c2ccccn12,"inconclusive: 22.4 µM [inhibitor, partial curve]"
22,COc1ccc(-c2ccc(C(=O)N3CCN(C(=O)c4ccc(C)cc4)CC3)cc2)nn1,inactive

row,Structure (SMILES),Potency
1,O=C(NCCN1CCCC1)c1cnc2c(c1)N(C(=O)Cc1cccc(C(F)(F)F)c1)CCC2,"inconclusive: 70.8 µM [inhibitor, single point]"
2,COc1ccc(-c2ccnc(N[C@H]3CO[C@H]4[C@@H]3OC[C@H]4OC(=O)Nc3cccc4ccccc34)n2)cc1,"inconclusive: 31.6 µM [inhibitor, full curve]"
3,Cn1ncc2c(C(=O)Nc3cccc(Cl)c3)cc(-c3cccc(C(F)(F)F)c3)nc21,"inconclusive: 44.7 µM [inhibitor, partial curve, poor fit]"
4,CCCN1C(CC(C)C)=NS(=O)(=O)c2cc(NC(=O)C(C)C)ccc21,inactive
5,CN(c1ccccc1)c1ccc2nnc(-c3ccc(F)cn3)n2n1,"inconclusive: 31.6 µM [inhibitor, partial curve, poor fit]"
6,CN1C[C@@H](NS(=O)(=O)c2ccc(C#N)cc2)C[C@H]1c1nc(-c2ccncc2)no1,inactive
7,Cc1ccc(C(=O)N2CC(N(Cc3cccnc3)S(C)(=O)=O)C2)s1,inactive
8,C[S+](=O)([O-])N1Cc2ccccc2CC2(CCCN(CC3CCCCC3)C2)C1 (stereo not given),inactive
9,Cc1nn2c(c1-c1ccccc1C(C)C)N(CCC(C)C)CCC2,active: 8.91 µM
10,CC1=NS(=O)(=O)N(Cc2ccccc2)C=C1C(=O)OCc1nc(Cc2ccc(C)cc2)no1,inactive
11,Cc1cccc(-c2cc(C3CCN(S(=O)(=O)c4cccc(C#N)c4)CC3)[nH]n2)c1,active: 5.01 µM
12,O=C(NCCC1CCN(C(=O)Nc2cc(F)ccc2F)CC1)c1cnccn1,inactive
13,COc1ccc(Nc2ccnc(N3CCN(C(=O)c4ccccc4OC)CC3)n2)cc1,"inconclusive: 39.8 µM [inhibitor, partial curve]"
14,O=C(CCC1CCCN(CC2=Cc3cc(Cl)ccc3OC2)C1)Nc1ccccc1F (stereo not given),"inconclusive: 50.1 µM [inhibitor, partial curve, poor fit]"
15,O=C(NC1CCN(C(=O)c2ccc(-c3cncnc3)cc2)CC1)C1CCCC1,inactive
16,O=C(NC[C@@H]1CCCO1)c1ncoc1C1CC1,inactive
17,COc1ccc(OC)c(NC(=O)c2ccc3c(c2)N(C)C2CCCCN2C3=O)c1 (stereo not given),"inconclusive: 50.1 µM [inhibitor, partial curve, poor fit]"
18,CCN(CC)CC(=O)N1CCC(C(=O)Nc2ccc(-c3nc4ccccc4o3)cc2)CC1,active: 22.4 µM
19,O=S(=O)(c1ccc(F)cc1)N1CCCC(Cc2noc(-c3cccnc3)n2)C1 (stereo not given),"inconclusive: 39.8 µM [inhibitor, partial curve]"
20,CC1(CNC(=O)c2ccoc2)CCOCC1,inactive
21,COCCN1Cc2ccc(Nc3ccc(OC)cc3)nc2C(C)(C(=O)Nc2ccccc2)C1 (stereo not given),"inconclusive: 44.7 µM [inhibitor, partial curve, poor fit]"
